According to patent US5760092A, “Allocolchinones and uses thereof” (Brandeis University, priority 1996, dated 1998):
Several values for one entry are separate records, joined by “and”; a condition that tells them apart may be missing. Identical values can stand only once. Like-named read-outs stand apart in the source and are kept apart here.

Tests used:
[1] = tested on: HL-60 (TB) leukemia cells
[2] = tested on: A549/ATCC non-small cell lung cancer cells
[3] = tested on: NCI-H23 non-small cell lung cancer cells
[4] = tested on: NCI-H522 non-small cell lung cancer cells
[5] = tested on: HCT-15 colon cancer cells
CCRF-CEM leukemia cells = assay: cells; settings: Homo sapiens
[6] = tested on: SW-620 colon cancer cells
[7] = tested on: HL-60 (TB) leukemia cells; assay: cells; settings: Homo sapiens
MALME-3M melanoma cells [8] = tested on: MALME-3M melanoma cells
SK-MEL-5 melanoma cells [9] = tested on: SK-MEL-5 melanoma cells
K-562 leukemia cells = assay: cells; settings: Homo sapiens
[10] = tested on: OVCAR-5 ovarian cancer cells
786-0 renal cancer cells [11] = tested on: 786-0 renal cancer cells
TK-10 renal cancer cells [12] = tested on: TK-10 renal cancer cells
MCF7 breast cancer cells [13] = tested on: MCF7 breast cancer cells
[14] = tested on: A549/ATCC non-small cell lung cancer cells; assay: cells; settings: Homo sapiens
[15] = tested on: NCI-H460 non-small cell lung cancer cells; assay: cells; settings: Homo sapiens
[16] = tested on: NCI-H522 non-small cell lung cancer cells; assay: cells; settings: Homo sapiens
[17] = tested on: COLO 205 colon cancer cells; assay: cells; settings: Homo sapiens, COLO 205
[18] = tested on: HCC-2998 colon cancer cells; assay: cells; settings: Homo sapiens
[19] = tested on: HCT-116 colon cancer cells; assay: cells; settings: Homo sapiens
[20] = tested on: HCT-15 colon cancer cells; assay: cells; settings: Homo sapiens, HCT-15
[21] = tested on: SW-620 colon cancer cells; assay: cells; settings: Homo sapiens
MALME-3M melanoma cells [22] = assay: cells; settings: Homo sapiens
SK-MEL-5 melanoma cells [23] = assay: cells; settings: Homo sapiens
[24] = tested on: OVCAR-5 ovarian cancer cells; assay: cells; settings: Homo sapiens
786-0 renal cancer cells [25] = assay: cells; settings: Homo sapiens
ACHN renal cancer cells = assay: cells; settings: Homo sapiens
TK-10 renal cancer cells [26] = assay: cells; settings: Homo sapiens
UO-31 renal cancer cells = assay: cells; settings: Homo sapiens
[27] = tested on: PC-3 prostate cancer cells; assay: cells
MCF7 breast cancer cells [28] = assay: cells; settings: Homo sapiens
[29] = tested on: T-47D breast cancer cells; assay: cells; settings: Homo sapiens, T47D

CCCC(=O)NC1CCc2cc(OC)c(OC)c(OC)c2-c2ccc(C(C)=O)cc21 (stereo not drawn)
0.0152 µM: GI50 (UO-31 renal cancer cells; UO-31)
2.31 µM: CC50 ([16]; NCI-H522, read-out: LC50)
74 µM: CC50 ([18]; HCC 2998, read-out: LC50)
11.1 µM: TGI (SK-MEL-5 melanoma cells [9])
47.3 µM: TGI [3]
< 0.01 µM: TGI [1] | GI50 [2] | TGI [4] | GI50 (CCRF-CEM leukemia cells) | GI50 ([7]; HL-60) | GI50 (K-562 leukemia cells; K562) | TGI (MCF7 breast cancer cells [13]) | GI50 ([15]; NCI-H460) | GI50 ([16]; NCI-H522) | GI50 [17] | GI50 ([18]; HCC 2998) | GI50 ([19]; HCT-116) | GI50 [20] | GI50 ([21]; SW-620) | GI50 (MALME-3M melanoma cells [22]) | GI50 (SK-MEL-5 melanoma cells [23]; SK-MEL-5) | GI50 ([24]; OVCAR-5) | GI50 (786-0 renal cancer cells [25]; 786-0) | GI50 (ACHN renal cancer cells) | GI50 [27] | GI50 (MCF7 breast cancer cells [28]; MCF7)
> 100 µM: TGI [2] | TGI [5] | CC50 (CCRF-CEM leukemia cells; read-out: LC50) | TGI [6] | CC50 ([7]; HL-60, read-out: LC50) | TGI (UACC-62 melanoma cells) | CC50 (K-562 leukemia cells; K562, read-out: LC50) | TGI [10] | TGI (786-0 renal cancer cells [11]) | TGI (TK-10 renal cancer cells [12]) | CC50 ([14]; A549, read-out: LC50) | CC50 ([15]; NCI-H460, read-out: LC50) | CC50 ([19]; HCT-116, read-out: LC50) | CC50 ([21]; SW-620, read-out: LC50) | CC50 (MALME-3M melanoma cells [22]; read-out: LC50) | CC50 (SK-MEL-5 melanoma cells [23]; SK-MEL-5, read-out: LC50) | CC50 ([24]; OVCAR-5, read-out: LC50) | CC50 (786-0 renal cancer cells [25]; 786-0, read-out: LC50) | CC50 (ACHN renal cancer cells; read-out: LC50) | CC50 (TK-10 renal cancer cells [26]; TK-10, read-out: LC50) | CC50 (UO-31 renal cancer cells; UO-31, read-out: LC50) | CC50 ([27]; Homo sapiens, read-out: LC50) | CC50 (MCF7 breast cancer cells [28]; MCF7, read-out: LC50) | GI50 [29]
26.6 µM: GI50 (TK-10 renal cancer cells [26]; TK-10)
52.5 µM and > 100 µM: TGI (MALME-3M melanoma cells [8])
0.0138 µM: GI50 ([14]; A549)
34.5 µM: GI50 (TK-10 renal cancer cells [12])
